Test results: the supplement of paper PMC3334620
Over roughly 33,000 sequences, “E-score (-0.5 to 0.5)” has its median near -0.01; the highest 2% begin near 0.26. This is one part of the list.

target: Ste12 (UniProt P13574); assay: PBM E-score (8-mer binding enrichment) (E-score (-0.5 to 0.5)); higher = stronger / more preferred TF binding; most listed sequences are background and not binding sites; conditions: protein concentration: 200 nM; construct: GST-DNA-binding domain
Method in brief: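 Yeast transcription factors, full-length or as DNA-binding domains, were expressed with a GST tag using PURExpress in vitro transcription/translation. At about 100-200 nM they were applied to universal all-10-mer Agilent arrays, double-stranded by primer extension on fresh or once-stripped slides. Fluorescent anti-GST detected bound protein, and masliner normalised the scans. E-scores for ungapped eight-base words, pooled with reverse complements, came from the Universal PBM Analysis Suite.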

Sequence | PBM E-score
AAATTTGC | 0.0182
AAATACTA | 0.256
CACGTAAG | -0.253
CCGCTGTC | -0.134
AAGCCTGC | 0.0008
GATGAAGC | 0.00101
GGCTCGAA | -0.146
TCTACCCA | 0.0452
GAGGACCC | -0.227
GTCTGGTA | -0.017
CGTATGAC | 0.0679
ATAATCAG | -0.0187
CATGGGTA | -0.109
AGATTAAC | 0.0726
ATACCAGG | 0.0311
CCACGGGC | -0.214
CCCGCTCG | -0.0264
AGTTTGAA | 0.174
CTCTCAGC | -0.121
ACCGCAGC | -0.0929
ACGCAGAA | -0.123
ACAATTGA | 0.0603

Sequence | PBM E-score
GTTTAAGA | 0.0839
ATAGTTAG | 0.114
TAGGATGA | 0.127
GTATTGTA | 0.184
ATGTAGAC | -0.118
CCTTACCG | -0.032
ATATTGTA | 0.161
CTCAAGAG | -0.163
AGCTCTAA | -0.0946
AGCATGCA | -0.152
CACTAATA | 0.0757
AGACACCT | -0.179
CACACGGA | -0.0528
GGGCTACC | -0.292
CTGCGACA | 0.141
AAGCCAAG | 0.0515
CATCGATG | 0.17
ATAGTACG | 0.0104
CAATGATC | 0.0182
ATTGGACA | -0.0182
CTATTATA | 0.084
ATGTTAGA | 0.0296

Sequence | PBM E-score
CTAACACA | 0.107
CCCGAGCC | 0.014
CCACTACC | -0.0452
GGAGCGCC | -0.162
CCTCCGAC | -0.0722
TCGCCCCA | 0.0341
AACTACGA | 0.0326
GCTCCTTA | -0.11
CACTAGGA | -0.181
TATTGGCA | 0.132
AAGCACTA | 0.0131
AGCAGGTC | 0.012
AGACTGCA | -0.0839
AGCTGCAG | 0.033
GTTTTAGA | 0.253
CCTAAAGG | -0.238
CCAGGATC | -0.112
ATCACTCG | -0.0351
CCAGTCCA | -0.151
CCCAAATC | -0.0715
CATCTGTC | 0.0223
AACAGGAA | -0.067

Sequence | PBM E-score
ACATCGTC | -0.0946
CATTGTCC | 0.0283
AATACTTC | -0.0537
CGTAACCC | -0.0268
CCGATTAA | 0.00959
GCCGTCCC | -0.0616
GTCGCACA | 0.00167
GCGCCAAA | 0.107
CCTCGGAC | 0.00929
ACTCGACG | 0.0976
GCCTCCGC | -0.0888
CATATGGG | 0.0935
CGATGAAA | 0.289
CAAATCAC | -0.0631
AGATGCCT | -0.00729
AGTAAACG | 0.082
ATAGGCTA | 0.0305
CCTAATTC | 0.0851
TGCAGGAA | 0.0964
AAAAACCG | 0.178
